Records with an inconclusive call do not appear. A number of entries come with more than one value. This is not the full list of results. An entry can have further records. Values that stand side by side repeat one measurement (runs, samples, wells, individuals or studies).

The assay concerns Nude mice, LX-1 lung xenograft intrarenal, tumor weight T/C. The experiment in a line: NCI In Vivo Anticancer Drug Screen. Data for tumor model Human Lung LX-1 Xenograft (intrarenal inoculation) in NU/NU BALB/C (nude) mice. The conditions noted are these: endpoint: mean tumor weight change, higher = larger tumour. The method, then: The antitumor activity of compounds was measured in mice bearing transplantable tumors. Survival or tumor size were measured and the results are expressed as the measurement made in the treated group (T) divided by the measurement made in the vehicle treated control group (C). The tumor model used in this assay is Human Lung LX-1 Xenograft (intrarenal inoculation) in NU/NU BALB/C (nude) mice
Background: Xenograft models place foreign cells or tissue in a host animal.

[1] abbreviates: dose: 100.0 mg/kg/injection, schedule: Q04DX003 (ip), vehicle: saline.

Consider `Cc1c(-c2ccc(-c3ccccc3F)cc2)nc2ccc(F)cc2c1C(=O)O`, for which the T/C (dose: 11.5 mg/kg/injection, schedule: Q01DX009 (ip), vehicle: water) is -70 % of control, 17 % of control, 24 % of control. As to `CN(C)N=Nc1ccc(C(=O)O)cc1`, the T/C is -48 % of control and 1 % of control under setting [1]; -68 % of control and -26 % of control (dose: 200.0 mg/kg/injection, schedule: Q04DX003 (ip), vehicle: saline).

With `CN(C)N=Nc1ccc(S(N)(=O)=O)cc1`, the T/C (dose: 400.0 mg/kg/injection, schedule: Q04DX003 (sc), vehicle: Klucel (hydroxypropylcellulose) (HPC)) is -48 % of control and 6 % of control; the T/C (dose: 800.0 mg/kg/injection, schedule: Q04DX003 (sc), vehicle: Klucel (hydroxypropylcellulose) (HPC)) was -65 % of control and -37 % of control. On to `O=NN(CCCl)C(=O)NC1CCCCC1`, for which the T/C (dose: 8.0 mg/kg/injection, schedule: Q01DX010 (sc), vehicle: saline with Tween-80) is 31 % of control and 112 % of control; the T/C (dose: 16.0 mg/kg/injection, schedule: Q01DX010 (sc), vehicle: saline with Tween-80) was -86 % of control and 32 % of control; the T/C (dose: 32.0 mg/kg/injection, schedule: Q01DX010 (sc), vehicle: saline with Tween-80) is -93 % of control and -55 % of control. On to `COC1N(C2CC(O)C(CO)O2)C(=O)NC(=O)C1(F)Br` (configuration not stated), for which the T/C (dose: 25.0 mg/kg/injection, schedule: Q01DX010 (sc), vehicle: saline) was 38 % of control and 89 % of control. For `CN=NN(C)C(=O)NC`, the T/C under setting [1] is -55 % of control and 1 % of control. As for `N[C@H](C(=O)O)[C@@H]1CC(Cl)=NO1`, the T/C (dose: 4.0 mg/kg/injection, schedule: Q01DX010 (sc), vehicle: saline) is 49 % of control and 171 % of control.

For `CC1(CO)C(O)CCC2(C)C1CCC1CC3CC12CCC3(O)CO` (configuration not stated), the T/C was 45 % of control and 82 % of control (dose: 100.0 mg/kg/injection, schedule: Q01DX010 (sc), vehicle: saline with Tween-80); 11 % of control and 55 % of control (dose: 200.0 mg/kg/injection, schedule: Q01DX010 (sc), vehicle: saline with Tween-80). Regarding `[N-]=[N+]=CC(=O)CCC(N)C(=O)O` (configuration not stated), the T/C is, setting by setting: (dose: 0.4 mg/kg/injection, schedule: Q02DX005 (sc), vehicle: saline) 61 % of control and 207 % of control; (dose: 0.8 mg/kg/injection, schedule: Q02DX005 (sc), vehicle: saline) 46 % of control and 182 % of control; (dose: 1.6 mg/kg/injection, schedule: Q02DX005 (sc), vehicle: saline) 56 % of control and 381 % of control. As for `CN(Cc1cnc2nc(N)nc(N)c2n1)c1ccc(C(=O)N[C@@H](CCC(=O)O)C(=O)O)cc1`, the T/C (dose: 0.5 mg/kg/injection, schedule: Q01DX010 (sc), vehicle: sodium bicarbonate) was 78 % of control and 107 % of control; the T/C (dose: 2.0 mg/kg/injection, schedule: Q01DX010 (sc), vehicle: sodium bicarbonate) was 38 % of control and 94 % of control. For `CC1CN1C(=O)NCCCCCCNC(=O)N1CC1C` (configuration not stated), the T/C (dose: 40.0 mg/kg/injection, schedule: Q04DX003 (sc), vehicle: Klucel (hydroxypropylcellulose) (HPC)) was 17 % of control and 47 % of control. As for `Cn1cc(C2NC(=O)c3ccccc3N2)c2ccccc21` (configuration not stated), the T/C (dose: 600.0 mg/kg/injection, schedule: Q04DX003 (sc), vehicle: Klucel (hydroxypropylcellulose) (HPC)) is 91 % of control and 119 % of control. In the case of `CC[C@@]1(O)C(=O)OCc2c1cc1n(c2=O)Cc2cc3ccccc3nc2-1`, for the setting “dose: 40.0 mg/kg/injection, schedule: Q04DX003 (sc), vehicle: saline with Tween-80”, the T/C is -49 % of control and -12 % of control. Turning to `CC(O)CCC(=O)c1ccoc1` (configuration not stated), where the note is “dose: 7.5 mg/kg/injection, schedule: Q01DX010 (ip), vehicle: saline”, the T/C was 68 % of control and 102 % of control. With `C[n+]1c(-c2cccc3ccccc23)c2cc(N)ccc2c2ccccc21`, the T/C (dose: 12.0 mg/kg/injection, schedule: Q04DX003 (sc), vehicle: saline) is 101 % of control and 187 % of control. Turning to `CN(C)N=Nc1cccc(C(N)=O)c1`, the T/C reads like this: (dose: 50.0 mg/kg/injection, schedule: Q04DX003 (sc), vehicle: Klucel (hydroxypropylcellulose) (HPC)) -56 % of control and 6 % of control; (dose: 100.0 mg/kg/injection, schedule: Q04DX003 (sc), vehicle: Klucel (hydroxypropylcellulose) (HPC)) -72 % of control and 2 % of control. As to `O=NN(CCCl)C(=O)NCCCl`, the T/C reads like this: (dose: 8.0 mg/kg/injection, schedule: Q01DX010 (ip), vehicle: saline) -38 % of control and 1 % of control; (dose: 53.33 mg/kg/injection, schedule: Q04DX003 (ip), vehicle: saline) -77 % of control and -10 % of control. On to `CN(C)N=Nc1ccc(C(N)=O)cc1`, for which the T/C (dose: 50.0 mg/kg/injection, schedule: Q04DX003 (ip), vehicle: saline with Tween-80) is 9 % of control and 49 % of control; the T/C (dose: 100.0 mg/kg/injection, schedule: Q04DX003 (ip), vehicle: saline with Tween-80) is 9 % of control and 40 % of control. As to `Oc1c(Cl)cc(Cl)cc1C=NCCSc1ccc(Cl)cc1`, the T/C was 81 % of control and 110 % of control (dose: 300.0 mg/kg/injection, schedule: Q04DX003 (ip), vehicle: Klucel (hydroxypropylcellulose) (HPC)); 64 % of control and 99 % of control (dose: 600.0 mg/kg/injection, schedule: Q04DX003 (ip), vehicle: Klucel (hydroxypropylcellulose) (HPC)). For `COC(=O)c1ccc(N=NN(C)COC(C)=O)cc1`, the T/C is, setting by setting: (dose: 60.0 mg/kg/injection, schedule: Q04DX003 (ip), vehicle: Klucel (hydroxypropylcellulose) (HPC)) 63 % of control and 104 % of control; (dose: 120.0 mg/kg/injection, schedule: Q04DX003 (ip), vehicle: Klucel (hydroxypropylcellulose) (HPC)) 37 % of control and 111 % of control; (dose: 240.0 mg/kg/injection, schedule: Q04DX003 (ip), vehicle: Klucel (hydroxypropylcellulose) (HPC)) 16 % of control and 87 % of control; (dose: 480.0 mg/kg/injection, schedule: Q04DX003 (ip), vehicle: Klucel (hydroxypropylcellulose) (HPC)) 15 % of control and 86 % of control. In the case of `Nc1ncn(C2OC(CO)C(O)C2O)c(=O)n1` (configuration not stated), the T/C (dose: 800.0 mg/kg/injection, schedule: Q04DX003 (sc), vehicle: saline) is 1 % of control and 28 % of control. On to `CCOC(=O)N(C)N=NC`, for which the T/C (dose: 30.0 mg/kg/injection, schedule: Q04DX003 (ip), vehicle: saline) is 23 % of control and 60 % of control.

For the origin of these results see PubChem BioAssay AID266 (DTP/NCI, 2004).
